In all, about 45,000 compounds went through this assay and about 65 (0.1%) were called active. Calls come from the whole dose curve; as a rule, active = well fitted activation curve with a large enough effect; inconclusive = small, poorly fitted or top-dose-only effect; inactive = no such curve, though single readings can be large or run the other way. The list shows a part of the results.
biological target: Galactocerebrosidase (Homo sapiens) (UniProt P54803); assay: A Novel Cell-Based Assay to Identify Small Molecules for B -Galactocerebrosidase; conditions: 145M-Twi-hGALC-G270D cells (Twitcher mouse brain line with human GALC G270D), HMU-beta-Gal fluorescence, 48 h; series mostly up to 57.5 µM; activation: at the top concentration; note: 0% is about no effect; nearly all actives have a fitted effect of over 65% in size
In short: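 Mutant human GALC (G270D), stably expressed in a Twitcher mouse brain cell line lacking endogenous GALC, is measured in live-treated cells via 6-hexadecanoylamino-4-methylumbelliferyl-β-galactoside hydrolysis (0.1 mM final, pH 5.2) with fluorescent detection.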

Chain of UniProt P54803 (P54803 whole entry, looked up): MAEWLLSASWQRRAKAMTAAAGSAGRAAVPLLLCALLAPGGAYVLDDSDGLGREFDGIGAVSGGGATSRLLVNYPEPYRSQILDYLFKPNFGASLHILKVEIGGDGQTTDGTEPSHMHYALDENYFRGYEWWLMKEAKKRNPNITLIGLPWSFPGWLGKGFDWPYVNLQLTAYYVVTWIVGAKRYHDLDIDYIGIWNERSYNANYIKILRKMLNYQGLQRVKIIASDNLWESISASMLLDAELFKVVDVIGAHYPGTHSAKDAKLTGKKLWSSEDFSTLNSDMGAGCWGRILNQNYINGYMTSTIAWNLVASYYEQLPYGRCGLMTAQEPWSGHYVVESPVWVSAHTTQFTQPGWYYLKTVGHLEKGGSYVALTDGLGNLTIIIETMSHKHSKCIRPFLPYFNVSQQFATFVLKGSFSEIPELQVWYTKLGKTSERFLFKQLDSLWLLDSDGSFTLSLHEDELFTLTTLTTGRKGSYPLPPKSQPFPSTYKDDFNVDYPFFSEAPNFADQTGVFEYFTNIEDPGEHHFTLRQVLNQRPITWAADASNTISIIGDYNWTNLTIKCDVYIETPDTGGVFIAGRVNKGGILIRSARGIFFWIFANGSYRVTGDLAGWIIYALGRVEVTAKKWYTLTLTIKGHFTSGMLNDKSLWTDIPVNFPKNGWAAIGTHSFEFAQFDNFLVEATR

activation, inactive:
COc1ccc(NC(=O)CCc2nnc3n(Cc4ccc(C)cc4)c(=O)c4ccccc4n23)cc1 -5.84%
COc1cccc(CNCCCSc2nnnn2C)c1OC -13.6%
CC1CCCCN1C(=O)CCS(=O)(=O)c1cc2c(cc1Cl)NC(=O)CO2 (stereo not drawn) -12%
CC(=O)Nc1c(C)nn(-c2ccccc2)c1N1CCC(C(=O)Nc2ccccc2F)CC1 -6.18%
COc1ccc(NS(=O)(=O)c2ccc3[nH]c4c(c3c2)CCCCC4)cc1 -15.2%
COc1ccc(NC(=O)c2ccco2)cc1NC(=O)c1c(OC)cccc1OC -8.91%
CC(=O)c1ccc(N2CCN(C(=O)Nc3ccc(C(C)C)cc3)CC2)cc1 13.9%
O=C(Nc1ccccc1)N(Cc1cccc(Cl)c1)c1ccccn1 -7.96%
COc1ccc(CCNC(=O)c2ccc3c(c2)ncn3-c2ccc(C(C)C)cc2)cc1OC -15.9%
CC(C)c1ccc2occ(CC(=O)N(Cc3ccc(F)cc3)C3CCS(=O)(=O)C3)c2c1 (stereo not drawn) -0.926%
Cn1c2ccccc2c2cnn(CC(=O)NCCCN3CCN(c4ccccc4F)CC3)c(=O)c21 -22.1%
CCCCN1C[C@H](O)[C@@H](O)[C@H](O)[C@H]1CO -14.2%
CCOC(=O)c1c(S(=O)(=O)N2CCC(C(=O)Nc3ccc(F)cc3F)CC2)c(C)n(C)c1C -18.9%
COc1cccc(CCc2ccccc2OCC(CN(C)C)OC(=O)CCC(=O)O)c1 (stereo not drawn) -19%
COc1ccc(CNC(=O)Cc2c(C)c3cc4c(C)coc4c(C)c3oc2=O)cc1OC -6.59%
COc1ccc(Cn2c(CO)cnc2SCc2ccccc2C)cc1 -3.59%
CCOc1ccc(CN2C(=O)c3ccccc3C2C(=O)NCCc2ccc(OC)c(OC)c2)cc1 (stereo not drawn) -9.62%
COc1ccccc1NC(=O)C1=C(C)Nc2ncnn2C1c1cccn1C (stereo not drawn) -12.7%
Cc1ccc(C)c(NC(=O)C2CCN(c3cc(C)nc4c(-c5ccc(Cl)cc5)c(C)nn34)CC2)c1 -16.1%
COc1ccc(-n2cc(C(=O)Oc3cc(C)cc(C)c3)c3ccccc3c2=O)cc1 -0.538%
COc1cccc(NC(=O)Cn2cc(C(=O)c3ccco3)c3ccccc32)c1 -18.2%
CCOc1ccc(CNS(=O)(=O)c2ccc3c(c2)CCCN3C(C)=O)cc1 -11.7%
CC(C)C(=O)Nc1ccc2nc(SCC(=O)N3CCc4ccccc43)sc2c1 -1.06%
COc1ccc(-c2csc3ncnc(Nc4cc(OC)cc(OC)c4)c23)cc1 -19.2%
c1ccc2c(c1)CCCC2C1=NCCN1 (stereo not drawn) -4.97%
Cc1ccc(-n2c(SCC(=O)c3ccccc3)nc3c([nH]c4ccccc43)c2=O)cc1 3.45%
COc1ccccc1CC(=O)Nc1ccc2nc(Nc3cccc(Cl)c3)cc(C)c2c1 0.749%
CCC(=O)N1CCc2cc(S(=O)(=O)Nc3cc(C)ccc3OC)ccc21 -20.2%
O=C(CSc1ncc(S(=O)(=O)c2ccc(Br)cc2)c(=O)[nH]1)Nc1ccc2c(c1)OCCO2 0.29%
CCCCC(Sc1nc2cc3c(cc2c(=O)n1CCCC(=O)NCc1ccc2c(c1)OCO2)OCO3)C(=O)OCC (stereo not drawn) -29.3%
COc1cccc(NC(=O)Cn2c(=O)n(CCCCC(=O)NCc3ccccc3Cl)c(=O)c3ccccc32)c1 1.82%
CCOc1ccccc1N1CCN(S(=O)(=O)c2ccc(C3CCCCC3)cc2)CC1 -13.5%
CC1CCN(C(=O)CSc2nc3ccccc3nc2Cc2ccccc2)CC1 -18.2%
CC(C)c1ccc(NC(=O)Cn2cc(S(=O)(=O)Cc3ccccc3Cl)c3ccccc32)cc1 -32.9%
Cc1cc(C)cc(NC(=O)c2cc(S(=O)(=O)N3CCc4ccccc43)cn2C)c1 -7.19%
O=C(Nc1ccc2oc(-c3cccc(F)c3)nc2c1)c1ccc2ccccc2c1 -10.1%
COc1ccccc1CNC(=O)c1ccc2c(c1)N(Cc1c(F)cccc1Cl)C(=O)CS2 7.9%
Oc1ccc(NCc2ccc(OCc3ccccc3)cc2)cc1 4.82%
Cc1cc(=O)oc2cc(OCC(=O)Nc3ccc(O)c(C(=O)O)c3)ccc12 -6.71%
CCOc1ccc(CC(=O)N2CCc3cc(OC)c(OC)cc3C2COc2ccc3c(C)cc(=O)oc3c2)cc1 (stereo not drawn) -11%
CCCn1cnc2cc(NCc3ccc(OC)cc3OC)ccc21 -13%
Cc1cccc(Cn2c(SCc3ccc(C(=O)NC4CCCC4)cc3)nc3ccncc32)c1 0.915%
CCN(CC)S(=O)(=O)c1ccc2c(c1)N(CC(=O)NCCCN1CCN(c3cc(Cl)ccc3C)CC1)C(=O)CO2 -1.42%
COc1ccc(CNC(=O)Cc2c(C)c3c(cc(C)c4c(C)c(C)oc43)oc2=O)cc1OC -14.2%
Cc1cccc(-c2noc(CNC(=O)c3ccccc3Br)n2)c1 -12.3%
Cc1ccc(NC(=O)c2sc(-n3nc(C)c(Cc4ccc5c(c4)OCO5)c3C)nc2C)cc1Cl -3.39%
CC(C)CNS(=O)(=O)c1ccc(N2CCCCS2(=O)=O)cc1 -0.589%
CCOc1ccc(NC(=O)CCc2c(C)nc3cc(-c4ccc(Cl)cc4)nn3c2C)cc1 -17.2%
CCCCCn1c(=O)[nH]c2cc(C(=O)NCc3ccccc3)ccc2c1=O -15%
Cc1ccc(CNC(=O)CS(=O)(=O)Cc2nc(-c3ccccc3C)oc2C)cc1 -2.61%
CCCOc1ccc(NC(=O)C(=O)NCCCN2CCOCC2)cc1 -10.4%
Cc1ccc(CNC(=O)c2cc3c(s2)-c2c(C)cccc2OC3)cc1 -9.34%
CCOC(=O)c1c(NC(C)=O)c2c3c(sc2n1Cc1nc(-c2ccccc2Cl)oc1C)CCCC3 -17.5%
Cc1cccc(NC(=O)C2CCN(c3cnccn3)CC2)c1 -10.2%
COc1ccc(Cn2c(=O)c3ccccc3n3c(-c4cccc(OC)c4OC)nnc23)cc1 -16.4%
COc1ccc(CC(=O)Nc2ccc3nc(N4CCCCC4)cc(C)c3c2)cc1 -18%
CC1CCN(S(=O)(=O)c2ccc3c(c2)oc(=O)n3CC(=O)O)CC1 -12.6%
CCOc1ncc(F)c(=O)[nH]1 -20.2%
CCC(=O)N1CCc2cc(Br)cc(S(=O)(=O)CCC(=O)Nc3cccc(C)c3C)c21 -6.83%
CCOCCCNC(=O)c1ccc(-n2c(-c3ccccc3)cc3c2CCCCC3)cc1 5.24%
COc1ccc(CNCc2c(C(=O)O)n(Cc3ccc(F)cc3)c3cc(C)ccc23)cc1OC 2.69%
CC(C)OC(=O)C(C(=O)OC(C)C)=C1SC=CS1 -19.1%
Cc1ncc([N+](=O)[O-])n1C -15.5%

Reference: PubChem BioAssay AID1159614 (National Center for Advancing Translational Sciences (NCATS), 2016)
